Assay results: publication PMC11194079
Read-outs that look alike come from different tables or passages of the source. Results are given in words; binding and its absence hold for the method and conditions named. Binding seen in cells or lysates may run through a third protein. Some entries that bind do so weakly or less than the wild type.

Sequences of proteins named here, by UniProt entry; tags and fusion partners are left off.
UniProt P61407: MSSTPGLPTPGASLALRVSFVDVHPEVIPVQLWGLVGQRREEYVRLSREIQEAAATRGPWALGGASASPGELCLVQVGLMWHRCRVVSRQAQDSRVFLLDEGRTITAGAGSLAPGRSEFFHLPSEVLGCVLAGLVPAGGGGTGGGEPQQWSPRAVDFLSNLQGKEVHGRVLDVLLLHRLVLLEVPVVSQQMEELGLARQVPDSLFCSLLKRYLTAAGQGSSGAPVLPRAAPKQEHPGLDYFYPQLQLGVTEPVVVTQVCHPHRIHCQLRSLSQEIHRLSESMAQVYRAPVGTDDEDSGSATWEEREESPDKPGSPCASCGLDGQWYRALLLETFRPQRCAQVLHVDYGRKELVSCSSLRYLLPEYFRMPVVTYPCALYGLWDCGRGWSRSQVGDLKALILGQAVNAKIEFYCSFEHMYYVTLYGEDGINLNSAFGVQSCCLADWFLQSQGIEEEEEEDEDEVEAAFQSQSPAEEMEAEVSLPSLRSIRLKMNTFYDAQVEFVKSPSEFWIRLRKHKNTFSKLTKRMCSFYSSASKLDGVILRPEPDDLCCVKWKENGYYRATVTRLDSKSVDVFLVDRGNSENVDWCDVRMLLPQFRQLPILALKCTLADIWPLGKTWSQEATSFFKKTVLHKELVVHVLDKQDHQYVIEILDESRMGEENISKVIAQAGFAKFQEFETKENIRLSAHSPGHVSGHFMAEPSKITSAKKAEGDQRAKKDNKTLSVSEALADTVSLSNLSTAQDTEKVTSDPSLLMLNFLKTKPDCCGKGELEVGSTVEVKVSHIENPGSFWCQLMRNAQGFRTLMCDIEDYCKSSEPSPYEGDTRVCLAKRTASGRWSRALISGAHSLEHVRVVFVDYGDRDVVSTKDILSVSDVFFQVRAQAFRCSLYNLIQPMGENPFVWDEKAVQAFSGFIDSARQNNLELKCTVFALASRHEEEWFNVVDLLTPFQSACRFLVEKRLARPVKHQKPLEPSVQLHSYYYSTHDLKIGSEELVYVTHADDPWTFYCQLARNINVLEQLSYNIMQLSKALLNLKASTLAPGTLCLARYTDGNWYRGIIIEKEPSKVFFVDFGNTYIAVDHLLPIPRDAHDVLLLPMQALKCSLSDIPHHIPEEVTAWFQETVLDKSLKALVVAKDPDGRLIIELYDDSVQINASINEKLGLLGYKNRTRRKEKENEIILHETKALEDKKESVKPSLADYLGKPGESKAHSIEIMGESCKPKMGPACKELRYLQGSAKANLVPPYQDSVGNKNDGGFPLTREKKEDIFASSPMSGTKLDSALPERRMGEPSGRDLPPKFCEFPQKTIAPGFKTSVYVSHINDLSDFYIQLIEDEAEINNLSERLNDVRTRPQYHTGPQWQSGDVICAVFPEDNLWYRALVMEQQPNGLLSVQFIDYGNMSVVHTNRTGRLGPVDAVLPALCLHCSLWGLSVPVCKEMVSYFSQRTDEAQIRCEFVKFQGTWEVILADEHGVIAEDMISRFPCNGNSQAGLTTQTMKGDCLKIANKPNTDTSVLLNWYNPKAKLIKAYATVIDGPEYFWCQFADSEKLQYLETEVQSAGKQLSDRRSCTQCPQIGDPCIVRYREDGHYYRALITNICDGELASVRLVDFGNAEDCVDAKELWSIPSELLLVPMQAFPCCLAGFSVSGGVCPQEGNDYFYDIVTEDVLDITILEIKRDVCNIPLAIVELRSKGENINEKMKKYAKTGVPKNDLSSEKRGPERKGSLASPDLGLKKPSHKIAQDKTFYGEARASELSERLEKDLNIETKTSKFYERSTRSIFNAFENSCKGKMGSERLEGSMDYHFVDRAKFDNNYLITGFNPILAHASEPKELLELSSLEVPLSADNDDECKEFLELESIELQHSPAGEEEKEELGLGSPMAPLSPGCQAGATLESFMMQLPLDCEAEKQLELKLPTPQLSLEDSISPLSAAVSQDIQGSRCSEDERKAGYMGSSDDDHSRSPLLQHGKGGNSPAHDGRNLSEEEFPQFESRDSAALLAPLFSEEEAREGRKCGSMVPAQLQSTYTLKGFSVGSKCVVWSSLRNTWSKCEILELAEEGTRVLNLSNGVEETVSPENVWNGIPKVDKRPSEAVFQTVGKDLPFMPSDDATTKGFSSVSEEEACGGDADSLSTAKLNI

Legend:
Assay in all cases: co-IP; MIWI immunoprecipitated with an antibody against MIWI and Protein G Dynabeads from P24 testis lysates (Miwi^+/RK or Miwi^RK/RK), 4°C; lysis and wash buffer 20 mM Tris pH 7.5, 200 mM NaCl, 2.5 mM MgCl2, 0.5% NP-40, 0.1% Triton X-100, 1 mM TCEP; western blot
[1] = biological target: MIWI (PIWIL1), wild type (mouse) (UniProt Q9JMB7)
[2] = biological target: MIWI (PIWIL1), wild type (mouse) (UniProt Q9JMB7); remark: listed apart in the source
[3] = biological target: MIWI-RK (MIWI with the six N-terminal arginines replaced by lysines) (mouse) (UniProt Q9JMB7)
[4] = biological target: T1, MIWI-RK (MIWI with the six N-terminal arginines replaced by lysines) (mouse), Q9JMB7; conditions: remark: other sources report otherwise
T1 chain: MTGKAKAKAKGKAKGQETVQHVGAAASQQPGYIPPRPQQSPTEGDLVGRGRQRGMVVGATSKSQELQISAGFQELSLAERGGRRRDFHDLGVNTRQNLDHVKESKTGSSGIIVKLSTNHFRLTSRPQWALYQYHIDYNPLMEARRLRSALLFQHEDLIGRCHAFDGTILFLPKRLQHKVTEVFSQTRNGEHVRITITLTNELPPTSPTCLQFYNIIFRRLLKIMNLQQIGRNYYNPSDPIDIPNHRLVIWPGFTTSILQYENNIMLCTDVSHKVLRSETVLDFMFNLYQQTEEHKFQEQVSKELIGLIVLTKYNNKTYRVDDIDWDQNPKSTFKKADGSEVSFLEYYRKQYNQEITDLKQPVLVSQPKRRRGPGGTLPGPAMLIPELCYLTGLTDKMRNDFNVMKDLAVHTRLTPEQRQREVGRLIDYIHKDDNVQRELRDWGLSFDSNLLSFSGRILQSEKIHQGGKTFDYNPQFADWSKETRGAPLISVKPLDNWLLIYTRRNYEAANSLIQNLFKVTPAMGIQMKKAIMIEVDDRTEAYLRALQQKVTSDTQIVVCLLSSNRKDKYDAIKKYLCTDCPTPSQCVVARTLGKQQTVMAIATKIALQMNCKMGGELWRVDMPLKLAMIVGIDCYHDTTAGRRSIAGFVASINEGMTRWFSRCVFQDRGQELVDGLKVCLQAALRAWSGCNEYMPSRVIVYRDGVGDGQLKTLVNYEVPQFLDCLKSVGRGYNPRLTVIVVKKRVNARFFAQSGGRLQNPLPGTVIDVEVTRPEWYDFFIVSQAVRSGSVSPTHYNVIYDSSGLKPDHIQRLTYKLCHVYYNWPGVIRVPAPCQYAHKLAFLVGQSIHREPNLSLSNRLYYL

With TDRD6 (from UniProt P61407 1-2134) the binding [1] was “binds”.

B1: TDRD5 (protein, UniProt Q5VCS6 1-1040)
chain: MSEQERIQDCLRKEIRSLLISTKDGLTPQQLEKEYLLMVGNHLPLRILGYRSTMELVLDMPDVVSVCPGGDGTVILKAIPDESTKGIASLVAKQRRSHKVRNSMPKGRPSICSGRVPYRGRVPPILPAVVKSELKDLLALSPVLLSDFEKAFARRFGRSFQYMQYGFLSMFEVLNAASDVISVEQTRAGSLLTLKKSVSEDKQRGWPAGKVFTQPFRMKQQGSYSTGFPVMKAHFSQPISNMEPPKQVLSMAKTPTFNSVEASRLNHTEKLNQLESTFKSVIAQIGPGGTVDPELKRKIQFVVSKFPQGLFISKLLGEFELTFKEQLSPKQLGFLNVTELVGALSDILRVEFSEERQDLLVFDADLKPLPSGGPLSSVRNSCLVQPDKKTEANPWTSSLSRNSLSTVAVKKTTWDCPLKNQKEPEQKIYKKPNLVVKPLQLQVETNKPQLSLSVANHDIPPDAVRAKKLCRLPPLDTSTLVGVFVEYIISPSQFYIRIYSRDSSELLEDMMIEMRRCYSNQLVSDRYIMPEYFIQPGHLCCVKISEDKWWYRVIIHRILGKKEVEVFYPDFGNIGTVQKSSLRFLKCCYTKLPAQAIPCSLAWVRPAEEHWTARAILHFQKLCGLKPLVGVVDEYIDGILNIFLCDTSSNEDVYFHHVLRTEGHAIVCRENAPSKGFRDFNPPALYTNASSAGDMVLTDLGHPAQQHYLNEDQEILQQAQQDINDGKCISYLKSAPKELLKDSKLSSLKTHKSCEEDPRWSILQPKDLKEENEDEVPTGMPCLESVTIGDDVWDENWLPLQAKMGKAGSPASQLFTSNLVGKKQYQTGGEMAQKDWCFSTSKDIWDDSWQPLGLANDVKGGIHTPEGPIAQEKNTSTTRIQQQPDLQYPLDSSTLPKLEEFYISLIKSQQSAERSQSEPASIQTHAGRAASKALSSTPAVGDSPENHSGSVESSPGSLKKEDVSNSRAEATAKDKSQGAIDQLSFILSPQHQISQKLYIPRSTATAVLGAAARLATSRSLLHWYPSVKGGKLEAERDGVK
With B1 the binding [2] was “binds”.

B2: TDRKH (TDRD2) (protein, UniProt Q80VL1 1-560)
chain: MSTERTSWTNLSTIQKIALGLGIPASATVAYILYRRYRESREERLTFVGEDDIEIEMRVPQEAVKLIIGRQGANIKQLRKQTGARIDVDTEDVGDERVLLISGFPVQVCKAKAAIHQILTENTPVFEQLSVPQRSVGRIIGRGGETIRSICKASGAKITCDKESEGTLLLSRLIKISGTQKEVAAAKHLILEKVSEDEELRKRIAHSAETRVPRKQPISVRREEVTEPGGAGEAALWKNTNSSMGPATPLEVPLRKGGGDMVVVGPKEGSWEKPNDDSFQNSGAQSSPETSMFEIPSPDFSFHADEYLEVYVSASEHPNHFWIQIIGSRSLQLDKLVSEMTQHYENSLPEDLTVHVGDIVAAPLSTNGSWYRARVLGTLENGNLDLYFVDFGDNGDCALKDLRALRSDFLSLPFQAIECSLARIAPTGEEWEEEALDEFDRLTHCADWKPLVAKISSYVQTGISTWPKIYLYDTSDEKKLDIGLELVRKGYAVELPEDMEENRTVPNMLKDMATETDDSLASILTETKKSPEEMPHTLSCLSLSEAASMSGDDNLEDDLF
In the case of B2, the binding [2] is reported as “binds” and the binding [3] is reported as “no binding”.

B3: TDRD5, Q5VCS6 1-1040 (protein)
chain: MSEQERIQDCLRKEIRSLLISTKDGLTPQQLEKEYLLMVGNHLPLRILGYRSTMELVLDMPDVVSVCPGGDGTVILKAIPDESTKGIASLVAKQRRSHKVRNSMPKGRPSICSGRVPYRGRVPPILPAVVKSELKDLLALSPVLLSDFEKAFARRFGRSFQYMQYGFLSMFEVLNAASDVISVEQTRAGSLLTLKKSVSEDKQRGWPAGKVFTQPFRMKQQGSYSTGFPVMKAHFSQPISNMEPPKQVLSMAKTPTFNSVEASRLNHTEKLNQLESTFKSVIAQIGPGGTVDPELKRKIQFVVSKFPQGLFISKLLGEFELTFKEQLSPKQLGFLNVTELVGALSDILRVEFSEERQDLLVFDADLKPLPSGGPLSSVRNSCLVQPDKKTEANPWTSSLSRNSLSTVAVKKTTWDCPLKNQKEPEQKIYKKPNLVVKPLQLQVETNKPQLSLSVANHDIPPDAVRAKKLCRLPPLDTSTLVGVFVEYIISPSQFYIRIYSRDSSELLEDMMIEMRRCYSNQLVSDRYIMPEYFIQPGHLCCVKISEDKWWYRVIIHRILGKKEVEVFYPDFGNIGTVQKSSLRFLKCCYTKLPAQAIPCSLAWVRPAEEHWTARAILHFQKLCGLKPLVGVVDEYIDGILNIFLCDTSSNEDVYFHHVLRTEGHAIVCRENAPSKGFRDFNPPALYTNASSAGDMVLTDLGHPAQQHYLNEDQEILQQAQQDINDGKCISYLKSAPKELLKDSKLSSLKTHKSCEEDPRWSILQPKDLKEENEDEVPTGMPCLESVTIGDDVWDENWLPLQAKMGKAGSPASQLFTSNLVGKKQYQTGGEMAQKDWCFSTSKDIWDDSWQPLGLANDVKGGIHTPEGPIAQEKNTSTTRIQQQPDLQYPLDSSTLPKLEEFYISLIKSQQSAERSQSEPASIQTHAGRAASKALSSTPAVGDSPENHSGSVESSPGSLKKEDVSNSRAEATAKDKSQGAIDQLSFILSPQHQISQKLYIPRSTATAVLGAAARLATSRSLLHWYPSVKGGKLEAERDGVK
In the case of B3, the binding [4] is reported as “no binding”.
